Results reported in PMC6919601, “Identification of Plasmodium dipeptidyl aminopeptidase allosteric inhibitors by high throughput screening” (PLoS ONE, 2019).
Screen size: about 110,000 compounds; about 230 (0.21%) showed an effect of 50% or more. This is one part of the list.

Target: DPAP1 (Plasmodium falciparum, UniProt Q8IIJ9)
Test: primary screen, percent inhibition; read by cleavage of a fluorogenic dipeptide substrate; higher = more effect of the substance
Parameters: species or system P. falciparum D10 trophozoite lysates; single well
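Note: 30 min substrate incubation versus DMSO and 10 µM JCP410 controls.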

Chain of DPAP1 (Q8IIJ9 whole entry, looked up): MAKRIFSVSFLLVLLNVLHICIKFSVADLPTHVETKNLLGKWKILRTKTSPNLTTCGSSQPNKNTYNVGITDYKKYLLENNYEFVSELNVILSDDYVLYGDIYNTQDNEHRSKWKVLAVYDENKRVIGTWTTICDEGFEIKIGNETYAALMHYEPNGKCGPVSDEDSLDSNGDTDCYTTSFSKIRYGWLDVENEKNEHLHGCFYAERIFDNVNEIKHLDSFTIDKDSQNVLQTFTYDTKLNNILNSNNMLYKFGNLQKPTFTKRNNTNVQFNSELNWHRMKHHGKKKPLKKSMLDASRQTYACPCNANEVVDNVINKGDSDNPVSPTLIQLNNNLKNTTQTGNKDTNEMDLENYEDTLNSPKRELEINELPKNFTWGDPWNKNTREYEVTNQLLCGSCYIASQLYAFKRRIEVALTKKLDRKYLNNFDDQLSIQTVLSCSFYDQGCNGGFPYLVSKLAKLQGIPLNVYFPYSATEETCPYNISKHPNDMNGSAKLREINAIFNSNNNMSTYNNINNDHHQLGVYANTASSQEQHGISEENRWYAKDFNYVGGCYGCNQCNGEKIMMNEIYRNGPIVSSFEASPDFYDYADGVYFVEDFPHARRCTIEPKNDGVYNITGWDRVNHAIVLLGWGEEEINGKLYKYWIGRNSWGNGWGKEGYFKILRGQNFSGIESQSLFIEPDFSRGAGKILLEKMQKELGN

| Structure (SMILES) | % Inhibition @ 10 uM |
| --- | --- |
| O=S(=O)(c1cnccc1N1CCN(CCO)CC1)N1CCOCC1 | -2.74% |
| N#CC1=C(N)N(c2cccnc2)C2=C(C(=O)CC(c3ccccc3)C2)C1c1ccc(F)cc1 (stereo not shown) | -1.37% |
| O=C(NCCCc1nc2ccccc2n1Cc1c(F)cccc1Cl)c1ccco1 | -2.99% |
| O=c1[nH]c(=O)c2nc3cc([N+](=O)[O-])ccc3nc2[nH]1 | 2.65% |
| Cc1nc2c(-c3ccc(F)cc3)c(C)nn2c(C)c1CCC(=O)O | -2.83% |
| Cc1nc2ccn(Cc3ccccc3)c(=O)c2cc1C(=O)O | -1.25% |
| COc1ccc(C2NCCc3c2[nH]c2ccccc32)c(OC)c1 (stereo not shown) | -1.8% |
| c1cc(-c2nn[nH]n2)ccc1CN1CCOCC1 | -4.07% |
| O=C(O)CNc1ncnc2oc(-c3ccccc3)c(-c3ccccc3)c12 | -4.12% |
| CCc1c(-c2ccccc2)nc2ccccc2c1C(=O)N1CCC2(CC1)OCCO2 | -2.26% |
| COc1cccc(NC(=O)c2ccccc2Br)c1 | 0.035% |
| O=C(c1cccs1)c1coc2ccc(O)c(CN3CCCCC3)c12 | -2.39% |
| O=C(CCc1ccccc1)NCC1(c2ccccc2)CCOCC1 | 13.3% |
| CCOc1ccccc1N1C(=O)c2cccnc2C1=O | -3.34% |
| COc1ccc(/C=C(\NC(=O)c2ccc(OC)cc2)C(=O)N2CCCCC2)cc1 | 0.674% |
| O=C1Nc2ccc([N+](=O)[O-])c3cccc1c23 | 2.65% |
| Cc1cc(C)n2nc(SCC(=O)NCc3ccco3)nc2n1 | 5.89% |
| CC1CCCC(C)N1c1nnc(NC(=O)c2cc(-c3ccc(Br)cc3)on2)s1 (stereo not shown) | -1.6% |
| COc1ccccc1N1CCN(C(=O)CN(c2cc(C)cc(C)c2)S(=O)(=O)c2ccccc2)CC1 | -1.28% |
| Cc1cc(=O)n2nc(N3CCCC3C(=O)NC3CCN(Cc4ccccc4)CC3)sc2n1 (stereo not shown) | -0.281% |
| Cc1ccc(NC(=O)CCSc2nc(C)cc(C)n2)cc1 | -5.19% |
| COc1ccccc1N1CCN(C(=O)CCN2C(=O)c3cccc4cccc(c34)C2=O)CC1 | 5.24% |
| COc1cc2c(cc1OC)CN(C(=O)CSc1nc3c(cc1C#N)CCC3)CC2 | 4.28% |
| CC(=O)Nc1c(-c2ccccc2)nc2ncccn12 | 2.92% |
| CC12CN(Cc3ccccc3)CC(C)(CN(Cc3ccccc3)C1)C2O (stereo not shown) | -4.23% |

| Structure (SMILES) | % Inhibition @ 10 uM |
| --- | --- |
| COc1ccccc1C1C(C#N)=C(N)OC2=C1C(=O)CCC2 (stereo not shown) | 3.99% |
| O=C1CC(NC2CCCCC2)C(=O)N1c1cccc(C(F)(F)F)c1 (stereo not shown) | -1.95% |
| CC(C)CCNc1c(-c2cccc(Cl)c2)[nH]c2c(C#N)cnn12 | -4.71% |
| O=C1NC2(CCN(C(=O)c3ccc4ccccc4c3)CC2)N=C1c1ccccc1 | -1.6% |
| Cc1ccc(N2C(=O)c3ccc(C(=O)O)cc3C2=O)cc1C | 2.22% |
| O=C1NC(c2ccc(Cl)cc2)Nc2c1sc(=S)n2-c1ccccc1 (stereo not shown) | 2.92% |
| CC(C)CNS(=O)(=O)c1ccc(S(=O)(=O)N2CCN(c3ncccn3)CC2)cc1 | -2.92% |
| CC1CCN(C2CC(=O)N(c3ccc(Br)cc3)C2=O)CC1 (stereo not shown) | 2.4% |
| Cc1ccc(C(C)NC(=O)c2ccccc2)c(C)c1 (stereo not shown) | 5.04% |
| O=S(=O)(c1ccc2[nH]c3c(c2c1)CCCC3)N1CCc2ccccc2C1 | -4.44% |
| CSc1nc(Oc2ccc(C)c(C)c2)cc(-n2nc(C)c(C(N)=O)c2N)n1 | 3.67% |
| COc1cc(C2C(C#N)=C(N)OC3=C2C(=O)CCC3)cc(OC)c1O (stereo not shown) | 3.31% |
| O=C(Nc1c(C(=O)N2CCN(c3ncccn3)CC2)oc2ccccc12)c1cccc(F)c1 | 1.23% |
| CCCCN(C)c1ncnc2c1sc1nc3c(cc12)COC(C)(C)C3 | -3.41% |
| O=C(NCc1cccnc1)Nc1ccc(Cl)c(Cl)c1 | 2.79% |
| Cc1csc(NC(=O)CNS(=O)(=O)c2cccs2)n1 | 1.07% |
| Cc1cccc(C(O)(c2ccccc2)C(CN2CCOCC2)c2ccccc2)c1 (stereo not shown) | 2.73% |
| Cc1cc(/C=C2/SC(=O)N(Cc3ccccc3C#N)C2=O)c(C)n1-c1ccc(S(N)(=O)=O)cc1 | 2.65% |
| CCCCn1c(=O)c(C(=O)Nc2ccc(OCC)cc2)c(O)c2ccccc21 | -17.7% |
| CCN1CCN(C/C=C(\C)CCC=C(C)C)CC1 | -0.505% |
| O=C1CC(N2CCN(CCO)CC2)C(=O)N1c1ccc(Br)cc1 (stereo not shown) | 0.823% |
| Cc1nc2ccccc2c2oc(C(=O)NCc3ccc4c(c3)OCO4)cc12 | 3.01% |
| COCCNC(=O)Cn1nc(C)c(NC(=O)c2cc(-c3ccc(F)cc3)no2)c1C | 0.526% |
| COc1cc(C2C(C#N)=C(N)OC3=C2C(=O)CCC3)ccc1OCc1ccc(F)cc1 (stereo not shown) | 1.57% |
